Target: T1, human C3b (human, UniProt P01024 23-667; P01024 part only)
T1 construct: Bought human C3b (Calbiochem), coated on microtiter wells; also called complement protein C3b
Assay: C3b-properdin binding ELISA: human C3b coated, properdin 1 nM, C3b-bound properdin detected with mouse anti-properdin P#2; wells without C3b as background

Sequence of human C3b (P01024 23-667 limits assumed, chain 1 of 2): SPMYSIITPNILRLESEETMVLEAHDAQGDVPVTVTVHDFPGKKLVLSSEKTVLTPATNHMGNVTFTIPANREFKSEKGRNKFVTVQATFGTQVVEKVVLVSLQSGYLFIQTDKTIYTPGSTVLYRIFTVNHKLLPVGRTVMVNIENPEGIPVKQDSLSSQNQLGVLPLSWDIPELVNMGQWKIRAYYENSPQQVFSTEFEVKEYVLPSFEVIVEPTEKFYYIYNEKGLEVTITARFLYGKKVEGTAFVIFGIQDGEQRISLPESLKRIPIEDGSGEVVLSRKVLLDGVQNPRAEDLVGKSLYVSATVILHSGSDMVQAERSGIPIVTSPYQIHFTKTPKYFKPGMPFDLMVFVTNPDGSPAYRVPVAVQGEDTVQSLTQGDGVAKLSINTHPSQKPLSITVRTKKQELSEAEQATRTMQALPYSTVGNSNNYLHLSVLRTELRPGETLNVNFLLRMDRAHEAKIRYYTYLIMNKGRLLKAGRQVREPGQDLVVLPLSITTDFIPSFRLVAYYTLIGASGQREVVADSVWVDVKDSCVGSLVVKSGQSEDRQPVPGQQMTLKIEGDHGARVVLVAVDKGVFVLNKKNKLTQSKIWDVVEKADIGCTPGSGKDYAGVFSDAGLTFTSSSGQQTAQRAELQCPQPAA
Sequence of human C3b (P01024 749-1663 limits assumed, chain 2 of 2): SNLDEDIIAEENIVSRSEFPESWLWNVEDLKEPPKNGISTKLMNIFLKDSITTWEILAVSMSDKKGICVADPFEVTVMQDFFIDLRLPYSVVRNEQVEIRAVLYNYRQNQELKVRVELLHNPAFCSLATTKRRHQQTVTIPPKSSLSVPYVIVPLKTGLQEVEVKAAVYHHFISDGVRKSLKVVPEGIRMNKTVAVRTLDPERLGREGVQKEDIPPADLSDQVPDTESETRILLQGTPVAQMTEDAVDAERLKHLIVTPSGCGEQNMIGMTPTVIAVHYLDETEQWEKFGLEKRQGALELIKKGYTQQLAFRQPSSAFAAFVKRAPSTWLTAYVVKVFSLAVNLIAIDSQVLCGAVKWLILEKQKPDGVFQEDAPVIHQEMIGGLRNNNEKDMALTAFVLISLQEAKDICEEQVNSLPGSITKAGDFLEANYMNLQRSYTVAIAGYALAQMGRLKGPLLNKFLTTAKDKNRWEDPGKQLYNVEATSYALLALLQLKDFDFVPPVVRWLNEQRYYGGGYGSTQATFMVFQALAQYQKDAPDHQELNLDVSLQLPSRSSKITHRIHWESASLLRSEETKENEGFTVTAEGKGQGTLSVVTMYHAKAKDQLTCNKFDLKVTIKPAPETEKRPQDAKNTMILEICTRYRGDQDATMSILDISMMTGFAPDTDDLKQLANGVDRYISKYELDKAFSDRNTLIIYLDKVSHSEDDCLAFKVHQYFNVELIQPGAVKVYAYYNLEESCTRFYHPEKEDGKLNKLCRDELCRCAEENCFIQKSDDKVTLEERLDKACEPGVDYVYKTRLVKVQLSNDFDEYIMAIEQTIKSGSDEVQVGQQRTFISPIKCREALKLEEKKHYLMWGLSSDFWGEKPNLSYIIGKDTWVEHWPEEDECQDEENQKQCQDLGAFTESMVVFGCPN

B1: human properdin (other, UniProt P27918 28-469, looked up)
chain: DPVLCFTQYEESSGKCKGLLGGGVSVEDCCLNTAFAYQKRSGGLCQPCRSPRWSLWSTWAPCSVTCSEGSQLRYRRCVGWNGQCSGKVAPGTLEWQLQACEDQQCCPEMGGWSGWGPWEPCSVTCSKGTRTRRRACNHPAPKCGGHCPGQAQESEACDTQQVCPTHGAWATWGPWTPCSASCHGGPHEPKETRSRKCSAPEPSQKPPGKPCPGLAYEQRRCTGLPPCPVAGGWGPWGPVSPCPVTCGLGQTMEQRTCNHPVPQHGGPFCAGDATRTHICNTAVPCPVDGEWDSWGEWSPCIRRNMKSISCQEIPGQQSRGRTCRGRKFDGHRCAGQQQDIRHCYSIQHCPLKGSWSEWSTWGLCMPPCGPNPTRARQRLCTPLLPKYPPTVSMVEGQGEKNVTFWGRPLPRCEELQGQKLVVEEKRPCLHVPACKDPEEEEL
B1: binds.
